Experimental data from publication PMC4336329 (PLoS ONE, 2015).
Screen size: about 310,000 compounds; about 14,000 (4.5%) showed an effect of 50% or more. Effects have a minus sign here. The list shows a part of the results.

Each compound was assayed against human ether-à-go-go-related gene (hERG) potassium channel (human, UniProt Q12809) (assay: primary screen, population patch clamp on CHO cells stably expressing hERG).
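Further: peak tail current of the secondary pulse compared with the same well before compound.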

human ether-à-go-go-related gene (hERG) potassium channel, sequence (Q12809 whole entry, looked up): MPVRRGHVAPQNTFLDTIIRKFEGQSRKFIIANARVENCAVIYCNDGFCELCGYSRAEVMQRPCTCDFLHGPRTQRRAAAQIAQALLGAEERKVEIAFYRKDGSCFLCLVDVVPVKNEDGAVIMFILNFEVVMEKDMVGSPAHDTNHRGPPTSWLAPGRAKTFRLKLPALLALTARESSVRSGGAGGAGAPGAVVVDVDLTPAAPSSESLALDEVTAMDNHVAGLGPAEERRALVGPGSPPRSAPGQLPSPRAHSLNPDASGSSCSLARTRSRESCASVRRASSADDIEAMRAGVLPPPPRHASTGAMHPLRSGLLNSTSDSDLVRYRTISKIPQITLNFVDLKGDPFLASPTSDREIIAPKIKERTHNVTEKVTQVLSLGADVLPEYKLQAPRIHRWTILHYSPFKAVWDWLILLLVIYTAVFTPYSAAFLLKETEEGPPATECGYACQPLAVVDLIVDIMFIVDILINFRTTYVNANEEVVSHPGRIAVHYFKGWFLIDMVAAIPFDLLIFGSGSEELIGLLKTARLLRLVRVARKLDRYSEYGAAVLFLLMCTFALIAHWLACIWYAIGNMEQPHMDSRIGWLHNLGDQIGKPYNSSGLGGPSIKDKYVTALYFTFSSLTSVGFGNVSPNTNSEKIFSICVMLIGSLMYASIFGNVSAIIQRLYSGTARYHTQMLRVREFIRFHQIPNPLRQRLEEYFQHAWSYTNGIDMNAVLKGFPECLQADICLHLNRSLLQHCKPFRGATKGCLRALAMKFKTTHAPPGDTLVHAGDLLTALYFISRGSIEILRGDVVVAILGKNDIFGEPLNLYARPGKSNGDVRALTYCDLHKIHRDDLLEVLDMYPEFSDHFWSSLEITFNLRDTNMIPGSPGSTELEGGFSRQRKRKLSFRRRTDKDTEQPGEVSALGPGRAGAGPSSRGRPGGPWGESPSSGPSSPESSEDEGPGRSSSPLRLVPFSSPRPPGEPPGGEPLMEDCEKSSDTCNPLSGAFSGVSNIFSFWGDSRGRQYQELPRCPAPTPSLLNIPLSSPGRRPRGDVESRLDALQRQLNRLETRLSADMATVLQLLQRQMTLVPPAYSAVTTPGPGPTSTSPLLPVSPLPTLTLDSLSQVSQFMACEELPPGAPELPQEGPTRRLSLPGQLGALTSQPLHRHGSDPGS

| Structure (SMILES) | hERG current change (%, negative = inhibition) at 10uM |
| --- | --- |
| CN(C)c1cc(C(F)(F)F)nc(-c2ccccn2)n1 | -0.728% |
| CC(C)CC(=O)NC(=S)Nc1ccc(N2CCOCC2)c(Cl)c1 | 3.67% |
| C1CCN(Cc2nnnn2C2CCCC2)CC1 | 11.4% |
| NS(=O)(=O)c1ccc(NCc2ccccc2OCc2ccccc2F)cc1 | -2.39% |
| c1ccc(-c2nnc3ccc(N4CCCC4)nn23)cc1 | 7.51% |
| Cc1ccc(NC(=O)NCc2ccc3c(c2)OCO3)cc1C | -36.1% |
| NC(=O)C1CCN(CCC(=O)Nc2ccc3c(c2)CCC3)CC1 | -19.6% |
| Cc1cc(S(=O)(=O)N2CCCC2)ccc1OCC(=O)NCc1ccccc1 | -11.8% |
| Cc1ccc2c(c1)oc(=O)n2CC(=O)c1ccccc1 | 1.58% |
| Cc1ccsc1C1C(C#N)=C(N)OC2=C1C(=O)CC(C)C2 (centres unmarked) | -31.9% |
| CCOC(=O)c1c(C)c(C(=O)NCCc2ccccc2)c(C)n1C | 1.27% |
| COc1ccccc1OCCCC(=O)Nc1ccc(N2CCOCC2)cc1 | 12% |
| O=C(CCl)Nc1ccc(Oc2cnc3ccccc3n2)cc1 | 3.17% |
| COc1ccc(C2C(C(=O)OC(C)C)=C(C)N=c3s/c(=C\c4cccs4)c(=O)n32)cc1 (centres unmarked) | 10.5% |
| CC(=O)N1CCOc2ccc(S(=O)(=O)NCC3CCC(C(=O)Nc4ncccc4C)CC3)cc21 (centres unmarked) | -6.23% |
| O=C(/C=C/c1ccc(OC(F)F)cc1)OCC(=O)N1CCc2ccccc21 | 12.7% |
| CC(C)/C=N/Nc1nc(-c2ccc(Br)cc2)cs1 | -24.8% |
| CC1(c2ccc3ccccc3c2)NC(=O)N(CC(=O)NCC(C)(C)N2CCOCC2)C1=O (centres unmarked) | -9.02% |
| O=C(NNS(=O)(=O)c1ccc2ccccc2c1)C1CCN(Cc2ccccc2)CC1 | -44.8% |
| COc1ccc(NS(=O)(=O)NC(=O)c2cn(C)c3ccccc23)cc1 | 20% |
| O=C(COC(=O)C1CC1)Nc1ccccc1Sc1ccccc1 | -18.1% |
| N#CC(=NCc1cccnc1)C1=C(O)c2ccccc2C1=O | 1.89% |

| Structure (SMILES) | hERG current change (%, negative = inhibition) at 10uM |
| --- | --- |
| COc1ccc(-c2nnc(-c3cccnc3)o2)cc1 | -0.347% |
| CCc1nnc(NC(=O)C2CC(=O)N(c3ccc4c(c3)OCCO4)C2)s1 (centres unmarked) | 4.32% |
| Cc1ccc(SCc2[nH]nc3c2C(c2cccnc2)C(C#N)=C(N)O3)cc1 (centres unmarked) | -2.64% |
| S=C(Nc1ccc(Cl)cc1)N(CCCN1CCOCC1)Cc1ccco1 | -26% |
| COc1ccc(NC(=O)CCC(=O)Nc2nnc(C3CCCCC3)s2)cc1 | 19.2% |
| CN(Cc1ccc(F)cc1)C(=O)c1ccc(NC(=O)CC2SC(N3CCCC3)=NC2=O)cc1 (centres unmarked) | 4.32% |
| CNS(=O)(=O)c1cn(CC(=O)NCc2ccccc2OC)cc1S(=O)(=O)NC | 20.5% |
| COCCCNC(=O)c1c[nH]c2ccc(S(=O)(=O)N3CCC(C)CC3)cc2c1=O | 6.48% |
| CCOc1ccccc1NC(=O)N1C2CCCC1CC(NC(=O)C1CC1)C2 (centres unmarked) | 13.6% |
| O=C(Nc1cccc(-c2cc3ccccc3oc2=O)c1)c1ccc(Br)o1 | -1.01% |
| O=C(Nc1ccc(S(=O)(=O)N2CCCC2)cc1)c1ccc(CN2CCOCC2)cc1 | -5.12% |
| CCCCc1nc2sc3c(=O)[nH]cnc3c2c2c1CCCC2 | 2.65% |
| O=C1CCCN1c1ccc(S(=O)(=O)N2CCN(c3ccccc3)CC2)cc1 | 16.3% |
| CNc1ccc(/C=C(\CCC(=O)O)c2nc3ccccc3s2)cc1[N+](=O)[O-] | 0.0204% |
| Cc1ccc2nc(NC(=O)Cn3nc(C)c([N+](=O)[O-])c3C)sc2c1 | -23.5% |
| O=C(Nc1nc(-c2cccnc2)cs1)c1ccccc1F | 20.3% |
| O=C(NCC1CCCO1)C1CC(=O)N(c2ccc(Cl)cc2)C1 (centres unmarked) | -7.51% |
| Cc1sc(NC(=O)/C=C/c2ccc3c(c2)OCO3)nc1-c1ccccc1 | 8.5% |
| C/C(=N\NC(=O)c1ccc2c(c1)OCO2)c1ccc(NS(C)(=O)=O)cc1 | -27.5% |
| O=C(CCNC(=O)c1ccc([N+](=O)[O-])cc1)Nc1ccc(F)cc1F | -29.7% |
| Cc1cc2ccccc2n1CCNC(=O)C(C)(C)C | 11.7% |
| Cc1cccc(N(CC(=O)O)CC(=O)O)c1 | -3.01% |
